Laboratory results taken from article PMC4336329 (PLoS ONE, 2015).
About 14,000 (4.5%) of roughly 310,000 compounds showed an effect of 50% or more. The effect is printed as a negative number. This is one part of the list.

biological target: human ether-à-go-go-related gene (hERG) potassium channel (human, UniProt Q12809); test: primary screen, population patch clamp on CHO cells stably expressing hERG
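Note: peak tail current of the secondary pulse compared with the same well before compound.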

Sequence of human ether-à-go-go-related gene (hERG) potassium channel (Q12809 whole entry, looked up): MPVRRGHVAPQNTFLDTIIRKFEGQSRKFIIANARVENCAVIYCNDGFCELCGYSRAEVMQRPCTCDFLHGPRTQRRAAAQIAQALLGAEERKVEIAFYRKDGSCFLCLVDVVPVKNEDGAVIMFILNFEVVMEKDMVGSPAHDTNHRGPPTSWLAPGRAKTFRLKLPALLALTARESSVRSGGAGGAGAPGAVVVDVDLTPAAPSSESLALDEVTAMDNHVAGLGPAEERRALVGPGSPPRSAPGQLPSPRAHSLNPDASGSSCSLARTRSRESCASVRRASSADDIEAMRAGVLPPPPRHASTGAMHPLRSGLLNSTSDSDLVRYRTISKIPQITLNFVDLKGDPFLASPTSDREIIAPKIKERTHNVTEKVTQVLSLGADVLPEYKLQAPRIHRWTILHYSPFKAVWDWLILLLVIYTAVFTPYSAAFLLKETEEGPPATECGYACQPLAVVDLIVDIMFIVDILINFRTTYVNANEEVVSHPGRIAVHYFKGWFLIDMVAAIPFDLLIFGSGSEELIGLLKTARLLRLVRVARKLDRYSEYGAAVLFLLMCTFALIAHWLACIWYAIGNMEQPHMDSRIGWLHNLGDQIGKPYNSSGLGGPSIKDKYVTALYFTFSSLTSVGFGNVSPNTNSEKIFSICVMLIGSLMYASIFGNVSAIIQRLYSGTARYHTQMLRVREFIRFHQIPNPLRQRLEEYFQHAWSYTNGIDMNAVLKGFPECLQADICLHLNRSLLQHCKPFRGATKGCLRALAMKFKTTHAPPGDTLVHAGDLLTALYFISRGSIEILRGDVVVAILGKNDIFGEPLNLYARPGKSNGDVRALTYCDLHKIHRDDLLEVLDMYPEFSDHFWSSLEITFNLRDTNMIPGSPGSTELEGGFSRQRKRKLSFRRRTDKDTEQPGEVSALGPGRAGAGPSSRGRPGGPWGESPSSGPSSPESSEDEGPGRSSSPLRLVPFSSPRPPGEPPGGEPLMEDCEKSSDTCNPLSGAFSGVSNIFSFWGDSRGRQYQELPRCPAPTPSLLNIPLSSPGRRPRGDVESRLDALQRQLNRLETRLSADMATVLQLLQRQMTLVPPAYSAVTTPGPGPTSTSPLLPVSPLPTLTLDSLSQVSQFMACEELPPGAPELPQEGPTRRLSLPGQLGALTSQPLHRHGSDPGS

Going from `CCN(CCO)c1nc(NCc2ccccc2)c2cnn(C)c2n1` to `CCn1c(SCC(=O)NCc2ccccc2)nnc1C(CO)NC(=O)c1ccccc1` (stereo not shown), the “hERG current change (%, negative = inhibition) at 10uM” value rises from -7.62% to 13.9%.

Going from `COC(=O)c1nn(-c2ccc3c(c2)CCN3C(C)=O)cc1O` to `CCOCCCNC(=O)COC(=O)/C=C/c1ccc(S(=O)(=O)N2CCc3ccccc32)cc1`, the “hERG current change (%, negative = inhibition) at 10uM” value rises from 7.13% to 13.8%.

Going from `Cc1ccc(S(=O)(=O)CC(=O)N2CCCCCC2)cc1` to `COc1ccc(S(=O)(=O)N2CCCCCC2)cc1NC(=O)c1ccccc1S(C)(=O)=O`, the “hERG current change (%, negative = inhibition) at 10uM” value falls from 13.6% to -26.5%.

First: C#CCOCCOCCOCCNc1nc(N2CCOCC2)nc(N2CCN(C(=O)[C@H]([C@@H](C)CC)n3cc([C@@H](N)Cc4ccc(O)cc4)nn3)CC2)n1.Cl
Second: CCOC(=O)C1CCN(C(=O)C2CCN(S(=O)(=O)c3cc(Cl)ccc3OCC)CC2)CC1
The “hERG current change (%, negative = inhibition) at 10uM” value of the first is higher: 1.85% for the first, -11% for the second.

First: C=CCSc1nc2c(c(=O)[nH]1)C(C(C)C)C(C#N)=C(N)O2 (stereo not shown)
Second: CCOC(=O)C1=C(COC(=O)/C=C/c2cc(OC)c(OC)c(OC)c2)NC(=O)NC1C (stereo not shown)
The “hERG current change (%, negative = inhibition) at 10uM” value of the first is lower: 3.05% for the first, 20.1% for the second.

First: COc1cc(C(=O)NCC(=O)OCCN2C(=O)c3ccccc3C2=O)cc(OC)c1OC
Second: COc1ccc(C(=O)NCCn2cc(SCC(=O)Nc3nnc(C)s3)c3ccccc32)cc1
The “hERG current change (%, negative = inhibition) at 10uM” value of the first is higher: 4.2% for the first, -28.8% for the second.

Going from `CCOC(=O)c1c(-c2ccc(C)o2)csc1NC(=S)NC(=O)N(C)C` to `CCOC(=O)c1[nH]c2ccc(F)cc2c1NC(=O)CCN1CCSCC1`, the “hERG current change (%, negative = inhibition) at 10uM” value falls from -2.36% to -22%.

First: CCOC(=O)c1c(NC(=O)CSc2nnnn2-c2ccccc2)sc2c1CC(C)(C)NC2(C)C
Second: COc1ccc(S(=O)(=O)N(CCc2ccccc2)CC(=O)O)cc1C
The “hERG current change (%, negative = inhibition) at 10uM” value of the first is lower: -64.3% for the first, 1.65% for the second.

Going from `O=S(=O)(/C=C/c1ccccc1)N1CCN(Cc2ccc3c(c2)OCO3)CC1` to `COc1ccc(OC)c(/C=N/NC(=O)CCN2CCN(C(c3ccccc3)c3ccccc3)CC2)c1`, the “hERG current change (%, negative = inhibition) at 10uM” value rises from -14.4% to -2.39%.

Going from `COc1ccc(C(=O)NN/C(=N/S(=O)(=O)c2ccc(C)cc2)c2ccccc2)cc1` to `Cc1ccnc(NS(=O)(=O)c2ccc(NS(=O)(=O)c3ccc([N+](=O)[O-])cc3)cc2)n1`, the “hERG current change (%, negative = inhibition) at 10uM” value rises from -4.03% to 8.49%.

Going from `COc1cc(-c2nc3ccc(C)cn3c2Nc2ccc3c(c2)OCCO3)ccc1O` to `O=C(COc1ccccc1F)NCC(c1ccco1)N1CCCC1` (stereo not shown), the “hERG current change (%, negative = inhibition) at 10uM” value rises from -18% to 45.9%.
